Test results published in a collection of fitness landscapes (doi:10.1016/j.celrep.2020.107928).
Whole data set: some 81,000 sequences, median “one-hybrid fitness for binding parS DNA” near -0.17, cut for the highest 2% near 0.51. Some of the results follow.

B1: Caulobacter ParB omega fusion; a variant is named by its letters at X, in order, B8GW30 (parent)
chain: MESVVVGEPGMSEGRRGLGRGLSALLGEVDAAPAQAPGEQLGGSREAPIEILQRNPDQPRRTFREEDLEDLSNSIREKGVLQPILVRPSPDTAGEYQIVAGERAWRAAQRAGLKTVPIMVRELDDLAVLEIGIIENVQRADLNVLEEALSYKVLMEKFERTQENIAQTIGKSXSHVANXMRLLXLPDEVQSYLVSGELTAXHARAIAAAADPVALAKQIIEGGLSVRETEALARKAPNLSAGKSKGGRPPRVKDTDTQALESDLSSVLGLDVSIDHRGSTGTLTITYATLEQLDDLCNRLTRGI

Variants of: B1
Assay: one-hybrid fitness for binding parS DNA (scaled: cognate 1, non-cognate 0); higher = stronger binding
Details: with parS DNA site
Outline: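 Pre- and post-selection plasmids were Illumina-sequenced, three replicate libraries were pooled, and any variant with under 10 reads was removed. The libraries were Caulobacter ParB with four specificity codons randomised, selected in E. coli USO through a HIS3 reporter whose site is 19 bp from the promoter. Cells grew 48 hours at 37°C on M9 without histidine, with 0.1 mM IPTG and 5 mM 3-AT. Fitness is the log change in variant-to-wild-type read ratio, rescaled against cognate and non-cognate.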

Variant | one-hybrid fitness for binding parS DNA
VDSF | ≤ 0.2
GMSL | ≤ 0.2
IPAK | ≤ 0.2
NIYW | ≤ 0.2
IKYR | ≤ 0.2
PFYA | ≤ 0.2
TDRT | ≤ 0.2
PMRF | ≤ 0.2
TFYC | ≤ 0.2
RYNC | 0.86
TTYW | ≤ 0.2
GVLD | ≤ 0.2
PDGC | ≤ 0.2
RNLG | 0.831
ARSW | ≤ 0.2
GNSC | ≤ 0.2
GYRI | ≤ 0.2
PRFC | ≤ 0.2
ARPA | ≤ 0.2
DFMR | ≤ 0.2
GKEG | ≤ 0.2
PGRD | ≤ 0.2
MQTR | ≤ 0.2
AFNK | ≤ 0.2
VMGS | ≤ 0.2

Variant | one-hybrid fitness for binding parS DNA
EICR | ≤ 0.2
QSGN | ≤ 0.2
SCDT | ≤ 0.2
ATAH | ≤ 0.2
PDLG | ≤ 0.2
NCRS | ≤ 0.2
ITLY | ≤ 0.2
SWQS | ≤ 0.2
ECGR | ≤ 0.2
QLGQ | ≤ 0.2
WLSS | ≤ 0.2
HRRK | ≤ 0.2
VIKR | ≤ 0.2
GTLY | ≤ 0.2
FMHS | ≤ 0.2
SYSL | ≤ 0.2
APQP | ≤ 0.2
MCVC | ≤ 0.2
ADVG | ≤ 0.2
QHAM | ≤ 0.2
PQES | ≤ 0.2
DCEC | ≤ 0.2
LPFT | ≤ 0.2
DVTC | ≤ 0.2
KGSH | ≤ 0.2

Variant | one-hybrid fitness for binding parS DNA
AFPS | ≤ 0.2
RGEY | ≤ 0.2
ADRV | ≤ 0.2
INGN | ≤ 0.2
MQAV | ≤ 0.2
EPLT | ≤ 0.2
LPHN | ≤ 0.2
HWHC | ≤ 0.2
RYFI | ≤ 0.2
KYIR | ≤ 0.2
AAKP | ≤ 0.2
SRRY | ≤ 0.2
FLVC | ≤ 0.2
EGWG | ≤ 0.2
PDMR | ≤ 0.2
RPSL | ≤ 0.2
VRPL | ≤ 0.2
RTCR | ≤ 0.2
QANF | ≤ 0.2
DGCI | ≤ 0.2
IPSG | ≤ 0.2
MIQE | ≤ 0.2
PQSR | ≤ 0.2
WKKW | 0.229
SGKR | ≤ 0.2

Variant | one-hybrid fitness for binding parS DNA
ENWL | ≤ 0.2
WRNG | ≤ 0.2
ECKS | ≤ 0.2
ANET | ≤ 0.2
PTRS | ≤ 0.2
LVEY | ≤ 0.2
RIRR | ≤ 0.2
TSAL | ≤ 0.2
CYRG | ≤ 0.2
SADM | ≤ 0.2
QSEQ | ≤ 0.2
YRSK | ≤ 0.2
RAFY | 0.499
MYQK | ≤ 0.2
IWTE | ≤ 0.2
YFKS | ≤ 0.2
QLER | ≤ 0.2
LEER | ≤ 0.2
FKPC | ≤ 0.2
HCMH | ≤ 0.2
MDIS | ≤ 0.2
RMEL | ≤ 0.2
NFSR | ≤ 0.2
FTTC | ≤ 0.2
MNVE | ≤ 0.2

Variant | one-hybrid fitness for binding parS DNA
MQND | ≤ 0.2
RYNL | ≤ 0.2
AGQT | ≤ 0.2
PHSR | ≤ 0.2
VSST | ≤ 0.2
VTLR | ≤ 0.2
PQAI | ≤ 0.2
VRSC | ≤ 0.2
MIPQ | ≤ 0.2
MGCA | ≤ 0.2
MTSY | ≤ 0.2
GCML | ≤ 0.2
HHES | ≤ 0.2
FSPD | ≤ 0.2
AEGE | ≤ 0.2
MSPR | ≤ 0.2
FAQR | ≤ 0.2
DKWF | ≤ 0.2
SIQY | ≤ 0.2
IGYG | ≤ 0.2
RWPV | ≤ 0.2
RDGD | ≤ 0.2
QHKS | ≤ 0.2
AEIS | ≤ 0.2
KNDC | ≤ 0.2

Variant | one-hybrid fitness for binding parS DNA
HLSL | ≤ 0.2
RFGP | ≤ 0.2
DHQL | ≤ 0.2
MTCG | ≤ 0.2
YAFG | ≤ 0.2
INLS | ≤ 0.2
RLEI | ≤ 0.2
DTEL | ≤ 0.2
LGQM | ≤ 0.2
IPVS | ≤ 0.2
QHIG | ≤ 0.2
CQFL | ≤ 0.2
ACWS | ≤ 0.2
TRYR | ≤ 0.2
AAAP | ≤ 0.2
SFMC | ≤ 0.2
RSPY | ≤ 0.2
RGRP | ≤ 0.2
DGLW | ≤ 0.2
RNLV | ≤ 0.2
AHAE | ≤ 0.2
RNHI | ≤ 0.2
VCKG | ≤ 0.2
FVAR | ≤ 0.2
PSVQ | ≤ 0.2

Variant | one-hybrid fitness for binding parS DNA
RCAC | 1.02
RSDV | ≤ 0.2
PLNP | ≤ 0.2
CTCG | ≤ 0.2
EMFL | ≤ 0.2
LKNR | ≤ 0.2
QQDT | ≤ 0.2
AARM | ≤ 0.2
WKRT | ≤ 0.2
QHAV | ≤ 0.2
VEPR | ≤ 0.2
SYSE | ≤ 0.2
EMEG | ≤ 0.2
GLRI | ≤ 0.2
DPAI | ≤ 0.2
QRTP | ≤ 0.2
YLVF | ≤ 0.2
MVLS | ≤ 0.2
VDFE | ≤ 0.2
ELCR | ≤ 0.2
HVLN | ≤ 0.2
YKQC | ≤ 0.2
APLN | ≤ 0.2
NLRN | ≤ 0.2
YINR | ≤ 0.2

Variant | one-hybrid fitness for binding parS DNA
GAHY | ≤ 0.2
DVIF | ≤ 0.2
RHHD | ≤ 0.2
QDAC | ≤ 0.2
DPHS | ≤ 0.2
STHN | ≤ 0.2
WTND | ≤ 0.2
PMLT | ≤ 0.2
SFQV | ≤ 0.2
KMGK | ≤ 0.2
RRKP | 0.338
RQDV | ≤ 0.2
CQHC | ≤ 0.2
LGGT | ≤ 0.2
AIYA | ≤ 0.2
DRYT | ≤ 0.2
PHGA | ≤ 0.2
TETA | ≤ 0.2
SYTF | ≤ 0.2
CLTS | ≤ 0.2
